Read-outs that look alike come from different tables or passages of the source. Starred links: 1 amine or outer side, 2 acyl side, 3 side chain; linkers in the order of their positions; H or OH if unused. Positions of bridges follow the written chain, without caps; N, C: chain ends. Non-standard residues stand in square brackets, D forms with d. Residues, ends and D or L forms follow the SMILES beside them. *: point of attachment. dAsp(3R-OH) = N[C@@H](C(=O)O)[C@@H](O)C(=O)O; Palmitoleoyl = CCCCCC/C=C\CCCCCCCC(=O)*; X1 = NC[C@H](O)[C@@H](N[*:1])C(=O)[*:2]; X2 = CCC(C)(O)[C@H](N[*:1])C(=O)[*:2]; d(aIle) = CC[C@H](C)[C@@H](N)C(=O)O; d(aThr) = C[C@@H](O)[C@@H](N)C(=O)O; Myristoyl = CCCCCCCCCCCCCC(=O)*; dOrn = NCCC[C@@H](N)C(=O)O; X3 = CC[C@H](C)CCCCC(=O)*; hSer = N[C@@H](CCO)C(=O)O; Dab = NCC[C@H](N)C(=O)O
How the values were obtained:
[1] = tested on: A. baumannii (ATCC 17978); assay: LpxC inhibition by CHIR-090 kinetic assay; type: cell-based, Acinetobacter baumannii; details: turnercyclamycins 16 µg/mL, colistin 8 µg/mL; for effect on A. baumannii growth as single agent: OD600 every 30 min for 24 h, 37°C, CHIR-090 8 µg/mL
Experimental: Turnercyclamycins A and B (16 µg/mL) and colistin (8 µg/mL) were used singly and in combination with CHIR-090 (8 µg/mL). Each assay was performed in triplicate in a 96-well plate. The plate was then incubated statically at 37°C in a Biotek-Synergy 2 Microplate Reader (Biotek). The OD600 of each well was then measured every 30 min for 24 h.

[2] = tested on: A. baumannii (ATCC 17978); assay: Exogenous addition of purified LPS and lipid A assay; type: cell-based, Acinetobacter baumannii; details: 500 µg/mL in text (100 µg/mL in method and legend); for increase of MIC90 in the presence of exogenous LPS: purified LPS; for increase of MIC90 in the presence of exogenous lipid A: purified lipid A
Experimental: Prior to the addition of test compounds, either purified LPS (Sigma-Aldrich L2018) or lipid A (Sigma-Aldrich L5399) (100 µg/mL) was added to wells.

A. baumannii ATCC 17978 = details: for Decrease (%): 26 h; for Δ (change in log CFU/thigh relative to 2 h baseline): 26 h versus 2 h baseline
Experimental: Eurofins used mice from BioLASCO Taiwan.
The dosing volumes were 10 mL/kg.

## C[C@@H](O)[C@H](NC(=O)c1ccc(C#Cc2ccc(CN3CCOCC3)cc2)cc1)C(=O)NO [CHIR-090]
[1]
  effect on A. baumannii growth as single agent: did not cause the death

## CC[C@H](C)CCCCC(=O)N[C@@H](CCN)C(=O)N[C@H](C(=O)N[C@@H](CCN)C(=O)N[C@H]1CCNC(=O)[C@H]([C@@H](C)O)NC(=O)[C@H](CCN)NC(=O)[C@H](CCN)NC(=O)[C@H](CC(C)C)NC(=O)[C@@H](CC(C)C)NC(=O)[C@H](CCN)NC1=O)[C@@H](C)O [Colistin, colistin (polymyxin E)] (X3-[Dab]T[Dab][Dab][Dab][dL]L[Dab][Dab]T; lactam 4-C)
[1]
  effect on A. baumannii growth as single agent: effective as single agents
[1]; with CHIR-090 8 µg/mL, OD600 for 24 h
  effect on A. baumannii growth in combination with CHIR-090: the bacteria survived
[2]
  increase of MIC90 in the presence of exogenous LPS: approximately fourfold
  increase of MIC90 in the presence of exogenous lipid A: approximately fourfold
A. baumannii ATCC 17978
  Decrease (%): 100%

## CCCCCCCCCCCCCC(=O)N[C@H](CCCN)C(=O)N[C@@H](CO)C(=O)N[C@H](C(=O)N[C@@H](C(=O)N[C@@H](C(=O)N[C@H]1C(=O)NCC(=O)N[C@@H](C(C)(O)CC)C(=O)N[C@H]([C@@H](C)CC)C(=O)N[C@@H](CCO)C(=O)N[C@@H](C)C(=O)N[C@H]([C@@H](C)CC)C(=O)N[C@@H](CCC(=O)O)C(=O)O[C@@H]1C)[C@@H](O)CN)[C@@H](O)C(=O)O)C(C)C (stereo partly drawn) [Turnercyclamycin A] (Myristoyl-[dOrn]SV[dAsp(3R-OH)][X1][d(aThr)]G[X2][d(aIle)][hSer]A[d(aIle)]E; ester 6-C)
[2]
  increase of MIC90 in the presence of exogenous LPS: fourfold
  increase of MIC90 in the presence of exogenous lipid A: twofold
A. baumannii ATCC 17978; 6.25 mg/kg IV, BID, q12h, CFU per thigh versus vehicle
  Decrease (%): 27%
A. baumannii ATCC 17978; 6.25 mg/kg IV, BID, q12h
  Δ (change in log CFU/thigh relative to 2 h baseline): 2.27
A. baumannii ATCC 17978; 12.5 mg/kg IV, BID, q12h, CFU per thigh versus vehicle
  Decrease (%): 98%
A. baumannii ATCC 17978; 12.5 mg/kg IV, BID, q12h
  Δ (change in log CFU/thigh relative to 2 h baseline): 0.10
A. baumannii ATCC 17978; 25 mg/kg IV, BID, q12h, CFU per thigh versus vehicle
  Decrease (%): 100%
A. baumannii ATCC 17978; 25 mg/kg IV, BID, q12h
  Δ (change in log CFU/thigh relative to 2 h baseline): -1.65
A. baumannii ATCC 17978; 25 mg/kg i.v. at 2 and 14 h, colistin 30 mg/kg s.c.
  response at 26 h after infection relative to colistin: comparable to colistin
A. baumannii ATCC 17978; 25 and 12.5 mg/kg i.v. at 2 and 14 h after infection (higher two doses)
  reduction in bacterial counts at 26 h after infection: statistically significant reduction

## CCCCCC/C=C\CCCCCCCC(=O)N[C@H](CCCN)C(=O)N[C@@H](CO)C(=O)N[C@H](C(=O)N[C@@H](C(=O)N[C@@H](C(=O)N[C@H]1C(=O)NCC(=O)N[C@@H](C(C)(O)CC)C(=O)N[C@H]([C@@H](C)CC)C(=O)N[C@@H](CCO)C(=O)N[C@@H](C)C(=O)N[C@H]([C@@H](C)CC)C(=O)N[C@@H](CCC(=O)O)C(=O)O[C@@H]1C)[C@@H](O)CN)[C@@H](O)C(=O)O)C(C)C (stereo partly drawn) [Turnercyclamycin B] (Palmitoleoyl-[dOrn]SV[dAsp(3R-OH)][X1][d(aThr)]G[X2][d(aIle)][hSer]A[d(aIle)]E; ester 6-C)
[2]
  increase of MIC90 in the presence of exogenous LPS: fourfold
  increase of MIC90 in the presence of exogenous lipid A: twofold

— publication PMC10714751 (Microbiology Spectrum, 2023)
